Experimental data as given in PubChem BioAssay AID624417 (National Center for Advancing Translational Sciences (NCATS), 2012).
In all, about 410,000 compounds went through this assay and about 6,400 (1.6%) were called active. This list was built around the results that the source calls inconclusive (neither active nor inactive); the mix of calls is not that of the screen. Calls come from the whole dose curve; as a rule, active = well fitted inhibition curve with a large enough effect; inconclusive = small, poorly fitted or top-dose-only effect; inactive = no such curve, though single readings can be large or run the other way. Potencies of inconclusive entries are left out as doubtful fits.

target: Glucagon-like peptide 1 receptor (Homo sapiens) (UniProt P43220); assay: qHTS of GLP-1 Receptor Inverse Agonists (Inhibition Mode); settings: HEK293 GLP-1R CRE-luciferase, luminescence, 24 h, GLP-1R form is constitutively active; activity change, negative = inhibition: at 38.3 µM (top of the series) unless noted; note: nearly all actives have a fitted effect of over 55% in size
Outline: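 qHTS in 1536-well format: reporter HEK293 cells expressing constitutive GLP-1R activity in DMEM + 10% Nu serum, 24 hr with compounds at 37 deg C, luminescence read after 12 min with detection reagent.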
% is set by controls: 0 for no effect and ±100 for the full control effect; potency is the fitted concentration of half-maximal effect; tags give direction and shape of the fitted curve.

UniProt P43220, sequence (P43220 whole entry, looked up): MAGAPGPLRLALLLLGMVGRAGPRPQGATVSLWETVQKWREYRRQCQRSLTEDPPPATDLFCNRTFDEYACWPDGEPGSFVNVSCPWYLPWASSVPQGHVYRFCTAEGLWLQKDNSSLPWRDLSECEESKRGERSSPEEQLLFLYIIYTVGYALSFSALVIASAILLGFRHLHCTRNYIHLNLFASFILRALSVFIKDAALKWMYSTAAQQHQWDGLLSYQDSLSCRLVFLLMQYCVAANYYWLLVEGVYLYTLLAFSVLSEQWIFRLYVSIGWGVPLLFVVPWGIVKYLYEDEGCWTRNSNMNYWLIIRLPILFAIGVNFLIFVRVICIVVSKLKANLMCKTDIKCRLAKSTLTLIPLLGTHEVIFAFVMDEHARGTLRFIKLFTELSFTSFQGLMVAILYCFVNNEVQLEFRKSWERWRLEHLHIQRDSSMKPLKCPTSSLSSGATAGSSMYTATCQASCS

SMILES | Potency | activity change, negative = inhibition
CCCc1n[nH]c2c1/C(=N/O)CC(c1ccccc1)C2 (stereo not drawn) | inconclusive [inhibitor, single point] | 
O=C(Cn1ncc2c(=O)oc3ccccc3c21)NCc1cccnc1 | inconclusive [inhibitor, partial curve, poor fit] | 
Cc1ccccc1-n1nc(CO)c(C(=O)NCC(c2ccccc2)c2ccccc2)n1 | inconclusive [inhibitor, partial curve, poor fit] | 
O=C(Nc1ccc2c(c1)OCO2)c1cc(C2CC2)on1 | inconclusive [inhibitor, partial curve, poor fit] | 
COc1ccc(CN2CCN(C(=O)c3cccc4ccccc34)CC2)cc1Br | inconclusive [inhibitor, single point] | 
O=C(OCC(=O)N1CCCc2ccccc21)c1cc(Cl)ccc1O | inconclusive [inhibitor, full curve] | 
Cc1cc(/C=N/n2c(COc3ccccc3)nc3ccccc3c2=O)c(O)c([N+](=O)[O-])c1 | inconclusive [inhibitor, partial curve, poor fit] | 
CCC(c1nnnn1CCc1ccccc1)N(Cc1ccco1)Cc1cc2cccc(C)c2[nH]c1=O (stereo not drawn) | inconclusive [inhibitor, single point] | 
CCOC(=O)c1ccc(N2C(=O)c3n[nH]c(-c4cccs4)c3C2c2ccc(CC)cc2)cc1 (stereo not drawn) | inconclusive [inhibitor, partial curve, poor fit] | 
O=S(=O)(Nc1ccc(F)c(Cl)c1)c1ccc(Br)s1 | inconclusive [inhibitor, partial curve, poor fit] | 
O=C(O)CCc1ccc(-c2ccccc2)n1CC1CCCO1 (stereo not drawn) | inactive | 
O=C(NCc1ccccc1)C1=C[C@H](c2ccc(Br)cc2)C[C@H](OCc2ccc(CO)cc2)O1 | inconclusive [inhibitor, partial curve, poor fit] | 
O=C(N/N=C/c1cc(Br)cs1)c1c[nH]c2ccccc12 | inconclusive [inhibitor, single point] | 
CC1(c2nnc(Cc3ccccc3)o2)CC(c2ccc(OC(F)(F)F)cc2)=NO1 (stereo not drawn) | inconclusive [inhibitor, single point] | 
CC(C)(C)NC(=O)CN(C(=O)c1snc(C(=O)NC2CCCCC2)c1N)c1ccccc1F | inconclusive [inhibitor, partial curve, poor fit] | 
COc1ccc(-n2cc(-c3ccc4c(c3)OCO4)n(CC(=O)Nc3cccc(C)c3C)c2=O)c(OC)c1 | inconclusive [inhibitor, partial curve, poor fit] | 
O=C1C=C(c2cc(C(F)(F)F)cc(C(F)(F)F)c2)C[C@@H](c2ccc3c(c2)OCO3)C1 | inconclusive [inhibitor, partial curve, poor fit] | 
Fc1ccc(CNC(=S)Nc2ccc(Cl)cc2)cc1 | inconclusive [inhibitor, partial curve, poor fit] | 
Cc1ccc2cc(/C=N/NC(=O)c3ccc(F)cc3)c(Cl)nc2c1 |  | inactive: 4.84% [at 0.307 µM]

SMILES | Potency | activity change, negative = inhibition
CSc1ccc(CN2CCC(C)(Oc3ccc(-n4ccnc4)cc3)C2)cc1 (stereo not drawn) | inconclusive [inhibitor, single point] | 
Cc1ccc(C)c(N2CCN(S(=O)(=O)c3ccc(-c4coc(C)n4)cc3)CC2)c1 | inconclusive [inhibitor, single point] | 
Cc1ccc(OCc2cc(C(=O)N(C)Cc3cc(C4CC4)n[nH]3)no2)cc1C | inconclusive [inhibitor, single point] | 
CC(O)CN(C)CC/C=C1/c2ccccc2CSc2ccccc21 (stereo not drawn) | inconclusive [inhibitor, single point] | 
COCCCNC(=O)C(=O)Nc1ccc2c(c1)N(S(=O)(=O)c1cccs1)CCC2 | inconclusive [inhibitor, full curve, poor fit] | 
COc1cc(OC)cc(C(=O)Nc2ccc(-c3nc4cc(C(C)C)ccc4o3)cc2)c1 | inconclusive [inhibitor, partial curve, poor fit] | 
Cc1ccc(S(=O)(=O)N(CC(=O)NCCSCc2ccco2)c2cc(C)ccc2C)cc1 | active: 11.2 µM | 
COc1cc(C(O)c2nc(-c3ccc(C)c(C)c3)cs2)ccc1F (stereo not drawn) | inconclusive [inhibitor, single point] | 
CCOC(=O)/C=C/C(=O)OCC(=O)NCc1ccccc1 | inactive | 
O=C(CN1C(=O)NC2(CCCCCC2)C1=O)Nc1ccc(OC(F)(F)F)cc1 | inconclusive [inhibitor, partial curve, poor fit] | 
Cn1c(N)c(C(=O)COC(=O)c2cc(S(=O)(=O)N3CCOCC3)ccc2F)c(=O)n(C)c1=O | inactive | 
COC(=O)c1ccccc1NS(=O)(=O)c1ccc2c(c1)oc(=O)n2C | inconclusive [inhibitor, partial curve] | 
Cc1ccc(NC(=O)CN2CCN(c3ccccc3F)CC2)cc1F | inactive | 
COc1ccc(CC2(CO)CCN(Cc3cnc(-c4ccccc4C)nc3)CC2)cc1 | inconclusive [inhibitor, partial curve, poor fit] | 
C=CCn1c(C)cc(C2=NNC(=NC(C)(C)C)SC2)c1C | inconclusive [inhibitor, full curve, poor fit] | 
COc1cc(C(=O)NCCOc2cc(C)cc(C)c2)cc(OC)c1OC | inconclusive [inhibitor, full curve, poor fit] | 
COc1cc2c(cc1OC)C1(Nc3c-2c(-c2ccccc2)nn3-c2ccccc2)C(=O)Nc2ccccc21 (stereo not drawn) | inconclusive [inhibitor, partial curve, poor fit] | 
O=S(=O)(NCc1ccc(Cl)cc1)c1ccc2[nH]c3c(c2c1)CCCC3 | inconclusive [inhibitor, single point] | 
Cc1ccc(NC(=O)c2ccc(Cl)cc2Cl)c(C(=O)c2ccccc2)c1 | inconclusive [inhibitor, partial curve, poor fit] | 
